# Assay results taken from PubChem BioAssay (NCATS).
# The inconclusive results got no clear call from the source; some entries with a clear call stand among them for comparison. Potencies of inconclusive entries are doubtful fits and often do not repeat. Activity calls are given as the source filed them. Unless noted, calls follow the shape of the dose curve; as a rule, active = well fitted curve in the direction sought with a large enough effect; inconclusive = small, poorly fitted or top-dose-only effect, or another doubt; inactive = no such curve, though single readings can be large; an effect the other way counts as inactive or inconclusive.
# Tests used:
# [1] = biological target: Aldehyde dehydrogenase, mitochondrial (Homo sapiens) (UniProt P05091); assay: qHTS for Inhibitors of the Aldehyde Dehydrogenase Family (ALDH2) Confirmatory screens (AID 2061303; active = well fitted inhibition curve with a large enough effect; inconclusive = small, poorly fitted or top-dose-only effect; inactive = no such curve, though single readings can be large or run the other way; title and protocol of this record describe different tests; also: nearly all actives have a fitted effect of over 45% in size); details: ALDH inhibition qHTS; activity change, negative = inhibition: at 45.4 µM (top of the series)
# [2] = qHTS for Inhibitors of the Aldehyde Dehydrogenase Family (ALDH1A2, ALDH1A3, ALDH2, ALDH3A1) (AID 2061307); details: ALDH inhibition qHTS; activity change, negative = inhibition: at 50.3 µM (top of the series) unless noted; also: nearly all actives have a fitted effect of over 50% in size; as to Potency: test system not described further here
# [3] = biological target: Aldehyde dehydrogenase, mitochondrial (Homo sapiens) (UniProt P05091); assay: qHTS for Inhibitors of the Aldehyde Dehydrogenase Family (ALDH2) Primary screen (AID 2061308); also: nearly all actives have a fitted effect of over 55% in size
# [4] = biological target: Retinaldehyde dehydrogenase 3 (Homo sapiens) (UniProt P47895); assay: qHTS for Inhibitors of the Aldehyde Dehydrogenase Family (ALDH1A3) Confirmatory screens (AID 2061311); details: activity change, negative = inhibition: at 46 µM (top of the series); also: nearly all actives have a fitted effect of over 60% in size
# [5] = biological target: Retinal dehydrogenase 2 (Homo sapiens) (UniProt O94788); assay: qHTS for Inhibitors of the Aldehyde Dehydrogenase Family (ALDH1A2) Confirmation screens (AID 2061314); details: activity, negative = inhibition: at 45.9 µM (top of the series) unless noted; also: nearly all actives have a fitted effect of over 65% in size
# [6] = biological target: Aldehyde dehydrogenase 1A1 (Homo sapiens) (UniProt P00352); assay: qHTS for Inhibitors of the Aldehyde Dehydrogenase Family (ALDH1A1) Confirmatory screens (AID 2061316); details: activity change, negative = inhibition: at 47.3 µM (top of the series); also: nearly all actives have a fitted effect of over 65% in size
# Potency is read from the fitted curve at half-maximal effect; tags tell the direction and shape of the fitted curve.
SMILES,Potency [1],Potency [2],Potency [3],Potency [4],Potency [5],Potency [6]
O=C1Nc2ccccc2/C1=C\c1ccc(O)c(F)c1,active: 0.224 µM,"inconclusive: 22.5 µM [inhibitor, partial curve]",active: 2.51 µM,active: 15.8 µM,active: 5.65 µM,inactive
COc1cc(O)c(C(CC(=O)N2C[C@H](C)C[C@H](C)C2)c2ccc3c(c2)OCO3)c(OC)c1 (stereo not given in full),"inconclusive: 41.1 µM [inhibitor, partial curve]",inactive,"inconclusive: 31.6 µM [inhibitor, partial curve, poor fit]",inactive,"inconclusive: 29.1 µM [inhibitor, partial curve]","inconclusive: 25.9 µM [inhibitor, partial curve, poor fit]"
O=C(O)CN1C(=O)/C(=C/c2ccc(-c3cccc(Cl)c3)o2)SC1=S,"inconclusive: 11.3 µM [inhibitor, partial curve]",active: 11.3 µM,"inconclusive: 25.1 µM [inhibitor, partial curve]",inactive,active: 22.5 µM,active: 7.98 µM
N#Cc1c(-c2cccc(O)c2)no[n+]1[O-],inactive,"inconclusive: 5.04 µM [inhibitor, full curve]",inactive,"inconclusive: 15.9 µM [inhibitor, partial curve]",active: 2.52 µM,"inconclusive: 22.5 µM [inhibitor, partial curve]"
O=C1Cc2cc(S(=O)(=O)N3CCN(c4ccc([N+](=O)[O-])cc4)CC3)ccc2N1,"inconclusive: 12.7 µM [inhibitor, partial curve, poor fit]",inactive,"inconclusive: 17.8 µM [inhibitor, partial curve, poor fit]","inconclusive: 22.5 µM [inhibitor, partial curve]","inconclusive: 10.1 µM [inhibitor, partial curve]","inconclusive: 7.12 µM [inhibitor, full curve]"
COC(CCc1ccc(O)cc1)CC(=O)CCc1ccc(O)cc1 (stereo not given),"inconclusive: 12.4 µM [inhibitor, partial curve, poor fit]",inactive,"inconclusive: 11.2 µM [inhibitor, partial curve]","inconclusive: 15.6 µM [inhibitor, partial curve, poor fit]","inconclusive: 17.5 µM [inhibitor, partial curve]",inactive
CC(=O)NC(Cc1c[nH]c2ccccc(=O)c12)C(=O)O (stereo not given),"inconclusive: 22.5 µM [inhibitor, partial curve]","inconclusive: 7.98 µM [inhibitor, partial curve]","inconclusive: 31.6 µM [inhibitor, partial curve, poor fit]","inconclusive: 14.2 µM [inhibitor, partial curve]","inconclusive: 11.3 µM [inhibitor, partial curve, poor fit]","inconclusive: 22.5 µM [inhibitor, partial curve]"
O=C(c1ccccc1O)N(Cc1ccco1)Cc1cccs1,"inconclusive: 22.5 µM [inhibitor, partial curve]","inconclusive: 25.2 µM [inhibitor, partial curve]","inconclusive: 31.6 µM [inhibitor, single point]","inconclusive: 31.8 µM [inhibitor, partial curve, poor fit]",active: 22.5 µM,active: 11.3 µM
COc1ccc(C2N(Cc3ccccc3)C(=O)c3ccccc3N2C)cc1COc1ccc(NC(C)=O)cc1 (stereo not given),inactive,active: 10.1 µM,"inconclusive: 3.16 µM [inhibitor, partial curve, poor fit]","inconclusive: 28.3 µM [inhibitor, partial curve]","inconclusive: 17.9 µM [inhibitor, partial curve]","inconclusive: 25.2 µM [inhibitor, partial curve]"
Cc1c(-c2ccccc2)no[n+]1[O-],inactive,"inconclusive: 12.7 µM [inhibitor, partial curve, poor fit]",inactive,"inconclusive: 20.1 µM [inhibitor, partial curve, poor fit]",inactive,inactive
